Molecules are shown by their SMILES. The whole screen tested about 310,000 compounds, of which about 2,200 (0.71%) showed an effect of 50% or more. Effects have a minus sign here. The list shows a part of the results.

This assay deals with human ether-à-go-go-related gene (hERG) potassium channel (human, UniProt Q12809). Nature of the assay: primary screen, population patch clamp on CHO cells stably expressing hERG.
human ether-à-go-go-related gene (hERG) potassium channel, sequence (Q12809 whole entry, looked up): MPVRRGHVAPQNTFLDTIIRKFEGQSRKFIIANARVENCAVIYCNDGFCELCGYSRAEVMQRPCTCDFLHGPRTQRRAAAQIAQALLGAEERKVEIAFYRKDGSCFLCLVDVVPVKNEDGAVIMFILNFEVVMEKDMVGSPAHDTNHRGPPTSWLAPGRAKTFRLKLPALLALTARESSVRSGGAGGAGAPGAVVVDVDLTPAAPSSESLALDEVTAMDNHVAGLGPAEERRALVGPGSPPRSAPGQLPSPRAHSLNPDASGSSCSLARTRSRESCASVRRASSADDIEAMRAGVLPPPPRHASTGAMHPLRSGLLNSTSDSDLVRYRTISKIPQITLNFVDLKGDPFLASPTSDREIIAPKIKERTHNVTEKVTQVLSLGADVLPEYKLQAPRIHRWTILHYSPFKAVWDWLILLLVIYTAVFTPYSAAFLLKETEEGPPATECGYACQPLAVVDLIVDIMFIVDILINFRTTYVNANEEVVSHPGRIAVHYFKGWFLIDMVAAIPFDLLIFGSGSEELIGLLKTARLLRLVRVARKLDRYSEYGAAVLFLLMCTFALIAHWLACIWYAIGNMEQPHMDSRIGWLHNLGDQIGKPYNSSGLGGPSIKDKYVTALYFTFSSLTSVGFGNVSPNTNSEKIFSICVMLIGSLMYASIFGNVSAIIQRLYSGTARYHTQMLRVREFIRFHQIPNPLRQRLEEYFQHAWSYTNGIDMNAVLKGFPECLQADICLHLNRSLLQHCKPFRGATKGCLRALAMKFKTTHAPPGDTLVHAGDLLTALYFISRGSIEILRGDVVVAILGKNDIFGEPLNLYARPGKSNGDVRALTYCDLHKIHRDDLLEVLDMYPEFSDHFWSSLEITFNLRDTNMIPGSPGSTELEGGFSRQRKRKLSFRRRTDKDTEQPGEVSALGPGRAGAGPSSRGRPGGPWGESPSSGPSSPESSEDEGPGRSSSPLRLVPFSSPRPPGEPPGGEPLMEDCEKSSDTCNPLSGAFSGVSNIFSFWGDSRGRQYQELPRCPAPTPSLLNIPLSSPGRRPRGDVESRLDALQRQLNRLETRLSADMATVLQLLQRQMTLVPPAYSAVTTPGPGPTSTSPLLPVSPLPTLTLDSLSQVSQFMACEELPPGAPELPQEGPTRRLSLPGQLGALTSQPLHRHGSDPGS
For `COc1ccccc1/C=C/C(=O)NCC(=O)N/N=C/c1cccnc1`, the “hERG current change (%, negative = inhibition) at 1uM” value came out at 16.9%.
On to `Cc1ccc(S(=O)(=O)NCc2ccccc2)cc1C(=O)N(C)CC(=O)Nc1c(Cl)cccc1Cl`, for which the “hERG current change (%, negative = inhibition) at 1uM” value was 10.8%.
As to `Clc1cc(Cl)cc(C2=NCCC(c3ccccc3)O2)c1` (centres unmarked), the “hERG current change (%, negative = inhibition) at 1uM” value is listed as 8.18%.
In the case of `Cn1c(/C=C/c2ccc(Br)cc2)c([N+](=O)[O-])c(=O)n(C)c1=O`, the “hERG current change (%, negative = inhibition) at 1uM” value is 6.39%.
Turning to `O=C(O)c1nn(CCOc2ccccc2F)c(=O)c2ccccc12`, the “hERG current change (%, negative = inhibition) at 1uM” value was 8.98%.
Take `Cc1nn(-c2ccccn2)c2c1C(c1c(F)cccc1Cl)C1=C(N2)c2ccccc2C1=O` (centres unmarked): the “hERG current change (%, negative = inhibition) at 1uM” value came to 5.07%.
For the compound `O=S(=O)(c1ccc2c(c1)OCCO2)N1CCC(c2nc3ccccc3[nH]2)CC1`, the “hERG current change (%, negative = inhibition) at 1uM” value turned out to be 6.16%.
`COC(=O)[C@@H]1C[C@@]2(O)[C@@H](O)[C@@H](O)[C@@H](O)C[C@H]2N1Cc1ccc(C(F)(F)F)cc1`: the “hERG current change (%, negative = inhibition) at 1uM” value was determined as 13.2%.
The value for `CCCN(CCC)CCCNS(=O)(=O)c1cc(Br)cc2c1N(C(C)=O)CC2` was 15.5%.
The value for `Cc1ccc(SC(CC(=O)c2ccc(F)cc2)C(=O)O)cc1` (centres unmarked) was 15.1%; that for `CC(=O)N1CCSc2ccc(S(=O)(=O)Nc3ccc(C)cc3)cc21` was 13.1%.
On to `O=C(O)c1cccc(S(=O)(=O)NCC2CCCO2)c1` (centres unmarked), for which the “hERG current change (%, negative = inhibition) at 1uM” value is on record as -0.0655%.
To `O=C(CN1C(=O)NC2(CCCC2)C1=O)Nc1cc(Cl)ccc1Oc1ccccc1` belongs 9.36%; to `Fc1ccccc1Cn1cnc(NC(=S)NCCc2ccccc2)n1`, 8.35%; to `CCOc1ccc(N(CC(=O)Nc2ccccc2C(=O)NCc2ccco2)S(C)(=O)=O)cc1`, -2.78%.
Take `CCCOc1ccccc1Cn1c(=O)oc2ccc(C)cc21`: the “hERG current change (%, negative = inhibition) at 1uM” value came out at 17.3%.
As to `CCC(Oc1cc(Cl)ccc1Cl)C(=O)NNC(=O)CCC(=O)O` (centres unmarked), the “hERG current change (%, negative = inhibition) at 1uM” value came to 23.8%.
Regarding `O=C(CSc1nc2ccccc2[nH]1)NCCCn1ccnc1`, the “hERG current change (%, negative = inhibition) at 1uM” value is on record as 13.3%.
The value for `COc1ccccc1NC(=O)CCCC(=O)OC(C)C(=O)c1ccccc1` (centres unmarked) was -8.43%; that for `COc1ccc(C(C(=O)NC2CCCCC2)N(CC2CCCO2)C(=O)CNC(=O)c2ccco2)cc1` (centres unmarked) was -0.0855%; that for `CCCc1nn(C)c2c(=O)[nH]c(-c3cc(S(N)(=O)=O)ccc3OCC)nc12` was 8.68%.
For `COc1ccc(CCNC(=O)CN(Cc2ccc(Cl)cc2)S(C)(=O)=O)cc1`, the “hERG current change (%, negative = inhibition) at 1uM” value is recorded as 6.27%.
With `Cl.N=c1ccn(Cc2ccc([N+](=O)[O-])cc2)cc1`, the “hERG current change (%, negative = inhibition) at 1uM” value is 11.2%.
The value for `Cc1ccc(C(=O)C2CCN(CC(=O)Nc3ccc4c(c3)OCCO4)CC2)cc1` was 7.66%.
The value for `Cc1nnc(SCC(=O)Nc2cc(C(C)(C)C)nn2-c2ccccc2)s1` was 1.77%.
On to `Cc1ccc(C)c(OCCC(=O)NNC(=O)c2ccncc2)c1`, for which the “hERG current change (%, negative = inhibition) at 1uM” value was 27.2%.
To `CN(C)CCCNC(=O)c1ccc(CN(c2ccccc2)S(C)(=O)=O)cc1` belongs 8.21%; to `Cc1cccc(NC(=O)CSc2nc3ccccc3nc2N2CCCCC2)c1`, -6.47%.
In the case of `COC(=O)CSc1nc(-c2cccs2)ccc1C#N`, the “hERG current change (%, negative = inhibition) at 1uM” value is reported as 9.92%.
With `OCC(Br)CBr` (centres unmarked), the “hERG current change (%, negative = inhibition) at 1uM” value is reported as 12.7%.
To `O=C(NCCc1ccccc1)C1CC(=O)N(c2ccc3c(c2)OCCO3)C1` (centres unmarked) belongs 7.34%; to `CN(C)S(=O)(=O)c1ccc(Oc2ccc(S(=O)(=O)N(C)C)cc2)cc1`, 4.07%.
As to `COc1cccc(-c2cc(C(F)(F)F)nc(-n3cccn3)n2)c1`, the “hERG current change (%, negative = inhibition) at 1uM” value is 9.35%.
To `Cc1ncc(CSc2ccc(Cl)cc2)c(CO)c1O` belongs 12.9%; to `COc1cc(/C=C2\CCOC2=O)cc(OC)c1OC`, 10.7%; to `COc1ccc(S(=O)(=O)N2CCC(c3nc4ccccc4[nH]3)CC2)cc1`, 12.9%.
The value for `CC[C@@]12C(=O)N(c3ccccc3)C(=O)N1[C@H](c1ccc(Br)cc1)[C@@H]1C(=O)N(C(C)(C)C)C(=O)[C@@H]12` was 6.66%; that for `O=C(Cc1cccs1)Nc1nnc(Cc2ccccc2)s1` was 3.96%.
The value for `CSCC(=O)Nc1nc(-c2ccc3c(c2)OCCO3)cs1` was -9.23%; that for `CCOC(=O)C1CCN(C(=O)C2CCN(S(=O)(=O)c3cc(Cl)ccc3Cl)CC2)CC1` was -3.15%.
As for `Cc1ccccc1C(=O)NC(=S)NC1CC1`, the “hERG current change (%, negative = inhibition) at 1uM” value was 17.5%.
Take `CCOC(=O)C1(CCOC)CCN(C(=O)c2ccccc2-c2cccc(C)c2)CC1`: the “hERG current change (%, negative = inhibition) at 1uM” value is recorded as 14%.
The value for `CCOC(=O)CNC(=O)c1cc(-c2ccccn2)nc2c(C)c(Cl)ccc12` was 7.56%.
To `O=C(CSCC(=O)Nc1nc(-c2ccc3c(c2)OCO3)cs1)Nc1nccs1` belongs 14.1%.

The values are drawn from article PMC4336329 (PLoS ONE, 2015).
